# Measurements published in PubChem BioAssay AID504332 (National Center for Advancing Translational Sciences (NCATS), 2011).
# In all, about 350,000 compounds went through this assay and about 31,000 (8.9%) were called active. This list was built around the results that the source calls inconclusive (neither active nor inactive); the mix of calls is not that of the screen. Calls follow the shape of the dose curve; as a rule, active = well fitted inhibition curve with a large enough effect; inconclusive = small, poorly fitted or top-dose-only effect; inactive = no such curve, though single readings can be large or run the other way. Where the call is inconclusive, the potency comes from a doubtful curve fit.
# Target: Histone-lysine N-methyltransferase EHMT2 (Homo sapiens) (UniProt Q96KQ7)
# Sequence of UniProt Q96KQ7 (Q96KQ7 whole entry, looked up): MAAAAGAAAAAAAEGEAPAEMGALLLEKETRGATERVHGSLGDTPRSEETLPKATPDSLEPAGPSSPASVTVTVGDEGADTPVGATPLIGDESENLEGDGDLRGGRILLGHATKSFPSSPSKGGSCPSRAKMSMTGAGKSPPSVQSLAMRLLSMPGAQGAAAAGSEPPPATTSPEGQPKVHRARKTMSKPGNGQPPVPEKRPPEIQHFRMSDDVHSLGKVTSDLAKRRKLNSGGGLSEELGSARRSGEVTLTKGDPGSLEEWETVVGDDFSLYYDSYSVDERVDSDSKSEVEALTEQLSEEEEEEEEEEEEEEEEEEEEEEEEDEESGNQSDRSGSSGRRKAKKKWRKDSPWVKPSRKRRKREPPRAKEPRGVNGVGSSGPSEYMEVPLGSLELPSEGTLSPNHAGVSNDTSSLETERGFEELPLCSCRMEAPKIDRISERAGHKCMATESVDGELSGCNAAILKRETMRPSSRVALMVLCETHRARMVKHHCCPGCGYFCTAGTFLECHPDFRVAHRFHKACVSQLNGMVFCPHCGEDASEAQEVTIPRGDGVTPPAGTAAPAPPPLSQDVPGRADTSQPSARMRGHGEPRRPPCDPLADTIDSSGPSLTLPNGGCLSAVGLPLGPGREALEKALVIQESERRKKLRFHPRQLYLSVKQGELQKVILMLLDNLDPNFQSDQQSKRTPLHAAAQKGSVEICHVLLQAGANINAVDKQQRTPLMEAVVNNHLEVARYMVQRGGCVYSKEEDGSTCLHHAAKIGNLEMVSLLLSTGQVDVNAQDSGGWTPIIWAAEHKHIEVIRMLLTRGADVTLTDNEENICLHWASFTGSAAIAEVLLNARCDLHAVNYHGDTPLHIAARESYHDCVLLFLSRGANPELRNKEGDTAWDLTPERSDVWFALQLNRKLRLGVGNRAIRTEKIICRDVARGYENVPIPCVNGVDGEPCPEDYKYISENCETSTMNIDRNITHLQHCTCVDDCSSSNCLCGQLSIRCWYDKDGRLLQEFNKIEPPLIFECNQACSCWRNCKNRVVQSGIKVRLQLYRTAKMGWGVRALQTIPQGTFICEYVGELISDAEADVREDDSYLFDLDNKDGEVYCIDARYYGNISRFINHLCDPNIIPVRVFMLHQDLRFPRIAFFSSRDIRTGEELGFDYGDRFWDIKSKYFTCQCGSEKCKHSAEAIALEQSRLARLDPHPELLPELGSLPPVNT
# Test: qHTS Assay for Inhibitors of Histone Lysine Methyltransferase G9a; also: nearly all actives have a fitted effect of over 75% in size
# Details: G9a H3K9 monomethylation, AlphaScreen, 2 h; activity, negative = inhibition: at 59 µM (top of the series) unless noted
# Procedure, shortened: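 G9a (20 nM) was preincubated 15 min with compound, then reacted 2 h at room temperature with 500 nM biotin-H3K9 peptide and 20 µM SAM. Monomethyl-H3K9 detected by AlphaScreen using anti-H3K9me1 antibody.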
# % is scaled to controls: 0 for no effect and ±100 for the full control effect; potency is read from the fitted curve at half-maximal effect; tags tell the direction and shape of the fitted curve.
Structure (SMILES),Potency,"activity, negative = inhibition"
CCOC(=O)Cc1nn(Cc2ccccc2)c(=O)c2ccccc12,"inconclusive: 89.1 µM [inhibitor, single point]",
O=C(CN1C(=O)COc2ccccc21)Nc1ccc(F)cc1,active: 31.6 µM,
O=C(c1cc(-c2ccc(Br)cc2)nc2ccccc12)N1CCN(c2ccccc2O)CC1,active: 50.1 µM,
O=S(=O)(c1ccccc1)N1CCN(Cc2cccc(Cl)c2)CC1,"inconclusive: 1.12 µM [inhibitor, partial curve, poor fit]",
O=C1CC(c2ccc3c(c2)OCO3)Sc2nc3ccccc3n21 (centres undefined),"inconclusive: 44.7 µM [inhibitor, partial curve, poor fit]",
COc1ccc(-c2nc(-c3ccc4c(c3)OCO4)[nH]c2-c2ccc(OC)cc2)cc1,inactive,
Oc1ccccc1N1CCN(C(=S)NCc2ccccc2)CC1,active: 31.6 µM,
Cc1cc(O)c(C(C)C)cc1N=C1CSC(=O)N1,,inconclusive: -67.8% [inhibitor]
CCOc1ccccc1NC(=O)NC(=O)N(C)S(=O)(=O)c1ccc(C)cc1,"inconclusive: 79.4 µM [inhibitor, partial curve, poor fit]",
O=C(CN1CC(=O)Nc2ccccc21)NCCc1ccc(Cl)cc1Cl,"inconclusive: 35.5 µM [inhibitor, single point]",
Cc1ccc(C)c(NC(=O)CN2C(=O)C(C)(C)c3ccccc32)c1,inactive,
O=C(Nc1nc2ccc(S(=O)(=O)N3CCCC3)cc2s1)C1CCCCC1,"inconclusive: 8.91 µM [inhibitor, single point]",
CC(=O)NS(=O)(=O)c1ccc(NC(=S)NC(=O)Cc2ccccc2)cc1,"inconclusive: 89.1 µM [inhibitor, single point]",
Cc1ccc(NC(=O)CCc2nnc3n(C)c(=O)c4sccc4n23)cc1C,inactive,
CSC1=NC2(CCN(C(=O)NC3CCCCC3)CC2)N=C1c1ccc(C)c(C)c1,inactive,
COc1cccc(C(=O)Nc2cc(NC(=O)c3cccs3)ccc2C)c1,inactive,
Cc1cc(Cl)ccc1NNC(=O)CCc1ccccc1,active: 28.2 µM,
CCOc1ccc(NC(=O)C(Cc2ccccc2)N2C(=O)c3cccc4cccc(c34)C2=O)cc1 (centres undefined),"inconclusive: 39.8 µM [inhibitor, partial curve, poor fit]",
CCc1nnc(SC(CC)C(=O)Nc2cccc(OC)c2)c2cc3oc(C)cc3n12 (centres undefined),"inconclusive: 11.2 µM [inhibitor, partial curve, poor fit]",
Nc1c(C(=O)Nc2ccc3c(c2)OCCO3)nnn1Cc1cccc(Br)c1,"inconclusive: 44.7 µM [inhibitor, partial curve, poor fit]",
Cc1ccc2nc(/C(C#N)=C\c3ccc(N4CCCCC4)c([N+](=O)[O-])c3)[nH]c2c1,active: 14.1 µM,
COc1cc(C)ccc1NC(=O)Cc1csc(NC(=O)Nc2ccccc2OC)n1,active: 12.6 µM,

Structure (SMILES),Potency,"activity, negative = inhibition"
O=C(NC1CCCCC1)C(c1ccncc1)N(Cc1ccc(F)cc1)C(=O)c1ccccn1 (centres undefined),"inconclusive: 70.8 µM [inhibitor, partial curve]",
Cc1cc(OC(=O)c2ccccc2C(F)(F)F)c([N+](=O)[O-])c(=O)[nH]1,"inconclusive: 89.1 µM [inhibitor, single point]",
CCN(CC)C(=O)C1CCCN(C(=O)Nc2ccc3nsnc3c2)C1 (centres undefined),"inconclusive: 79.4 µM [inhibitor, single point]",
CC(CN(C)Cc1ccccc1)OC(=O)C1COc2ccccc2O1 (centres undefined),"inconclusive: 70.8 µM [inhibitor, partial curve, poor fit]",
Nn1c(SCCOc2ccc(Cl)cc2)nnc1-c1cccnc1,"inconclusive: 89.1 µM [inhibitor, single point]",
CC1C/C(=N/N2C(=O)CSC2=S)CC(C)(C)C1 (centres undefined),"inconclusive: 89.1 µM [inhibitor, single point]",
CN(C(=O)CSc1nnc(Cc2cccc3ccccc23)n1N)C1CCS(=O)(=O)C1 (centres undefined),"inconclusive: 2.82 µM [inhibitor, partial curve, poor fit]",
C=C(C)C(=O)OCC(O)COc1ccc(C(C)(C)c2ccc(OCC(O)COC(=O)C(=C)C)cc2)cc1 (centres undefined),,inactive: 11.3% [at 12.7 µM]
CC(CC(=O)Nc1ncc([N+](=O)[O-])s1)c1ccccc1 (centres undefined),"inconclusive: 39.8 µM [inhibitor, partial curve]",
CCOC(=O)c1ccc(NC(=O)CC2C(=O)OCCN2CC)cc1 (centres undefined),active: 6.31 µM,
COc1cccc(/C=C2\SC(N3CCCC(C)C3)=NC2=O)c1OC (centres undefined),active: 70.8 µM,
CCOC(=O)c1ccc(Nc2nc(N3CCOCC3)nc(N3CCOCC3)n2)cc1,"inconclusive: 89.1 µM [inhibitor, single point]",
CCS(=O)(=O)N1Cc2ccccc2CC1C(=O)Nc1nc2ccc(F)cc2s1 (centres undefined),active: 31.6 µM,
Cc1c(NC(=O)/C(C#N)=C/c2ccc(-c3cc(Cl)ccc3Cl)o2)c(=O)n(-c2ccccc2)n1C,"inconclusive: 15.8 µM [inhibitor, single point]",
CCc1cccc(NC(=O)c2ccc(CNc3c(N4CCCC4)c(=O)c3=O)cc2)c1,inactive,
CCCNC(=O)c1ccc(N2CCC3(CC2)CC(c2ccccc2)=NO3)c([N+](=O)[O-])c1,"inconclusive: 44.7 µM [inhibitor, partial curve]",
Cc1ccc(C(=O)NCC(c2cccs2)S(=O)(=O)c2cccs2)cc1 (centres undefined),inactive,
COc1ccc(C(=O)OC(C(=O)c2ccc(C)cc2)c2ccccc2)cc1 (centres undefined),"inconclusive: 100 µM [inhibitor, single point]",
CCC(Sc1nncn2c1cc1occc12)C(=O)Nc1ccc(C)c(Cl)c1 (centres undefined),"inconclusive: 17.8 µM [inhibitor, single point]",
Clc1ccc(CNc2ccc(N3CCN(Cc4ccccc4)CC3)cc2)cc1,active: 10 µM,
CCc1noc(C)c1C(=O)Nc1ccc(Cl)c(S(=O)(=O)N2CCCCC2)c1,"inconclusive: 89.1 µM [inhibitor, partial curve, poor fit]",
Cc1cccc(C)c1NC(=S)NNc1ncc(C(F)(F)F)cc1Cl,"inconclusive: 25.1 µM [inhibitor, single point]",
